31 molecules from paper PMC9911399, “Two distinct binding modes provide the RNA-binding protein RbFox with extraordinary sequence specificity” can be followed below.

Substitutions are numbered along the chain they refer to; changes in the protein carry UniProt numbers. This is one part of the list.

T1: RBFOX1 RRM (Homo sapiens, UniProt Q9NWB1 109-208)
T1 sequence: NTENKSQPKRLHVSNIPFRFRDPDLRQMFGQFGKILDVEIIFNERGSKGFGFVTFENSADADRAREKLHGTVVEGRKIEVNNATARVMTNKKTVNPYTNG

B1: GGGACGG (DNA:RNA)
RNA: GGGAGACCGGAAUUCAGAUUGUCCGGGACGGUUAAAUCCCGUCGUAGCCACCA
DNA 1: CAATCTGAATTCCGGTCTCCC
DNA 2: TGGTGGCTACGACGGGATT
B2: CAAUCCG (DNA:RNA)
RNA: B1 RNA with G25C, G26A, G27A, A28U, G30C
DNA 1: CAATCTGAATTCCGGTCTCCC
DNA 2: TGGTGGCTACGACGGGATT
B3: CCUUUAA (DNA:RNA)
RNA: GGGAGACCGGAAUUCAGAUUGUCCCCUUUAAUUAAAUCCCGUCGUAGCCACCA
DNA 1: CAATCTGAATTCCGGTCTCCC
DNA 2: TGGTGGCTACGACGGGATT
B4: UUGGCUU (DNA:RNA)
RNA: B1 RNA with G25U, G26U, A28G, G30U, G31U
DNA 1: CAATCTGAATTCCGGTCTCCC
DNA 2: TGGTGGCTACGACGGGATT
B5: CUGAGCC (DNA:RNA)
RNA: B1 RNA with G25C, G26U, C29G, G30C, G31C
DNA 1: CAATCTGAATTCCGGTCTCCC
DNA 2: TGGTGGCTACGACGGGATT
B6: CCCUGAC (DNA:RNA)
RNA: B3 RNA with U27C, U29G, A31C
DNA 1: CAATCTGAATTCCGGTCTCCC
DNA 2: TGGTGGCTACGACGGGATT
B7: AUUUGAU (DNA:RNA)
RNA: B3 RNA with C25A, C26U, U29G, A31U
DNA 1: CAATCTGAATTCCGGTCTCCC
DNA 2: TGGTGGCTACGACGGGATT
B8: AAAUCGG (DNA:RNA)
RNA: B1 RNA with G25A, G26A, G27A, A28U
DNA 1: CAATCTGAATTCCGGTCTCCC
DNA 2: TGGTGGCTACGACGGGATT
B9: CGGUUGU (DNA:RNA)
RNA: B3 RNA with C26G, U27G, A30G, A31U
DNA 1: CAATCTGAATTCCGGTCTCCC
DNA 2: TGGTGGCTACGACGGGATT
B10: UAUCGCG (DNA:RNA)
RNA: B3 RNA with C25U, C26A, U28C, U29G, A30C, A31G
DNA 1: CAATCTGAATTCCGGTCTCCC
DNA 2: TGGTGGCTACGACGGGATT
B11: AACAUUA (DNA:RNA)
RNA: B3 RNA with C25A, C26A, U27C, U28A, A30U
DNA 1: CAATCTGAATTCCGGTCTCCC
DNA 2: TGGTGGCTACGACGGGATT
B12: AGCUUCU (DNA:RNA)
RNA: B3 RNA with C25A, C26G, U27C, A30C, A31U
DNA 1: CAATCTGAATTCCGGTCTCCC
DNA 2: TGGTGGCTACGACGGGATT
B13: CGACUCG (DNA:RNA)
RNA: B3 RNA with C26G, U27A, U28C, A30C, A31G
DNA 1: CAATCTGAATTCCGGTCTCCC
DNA 2: TGGTGGCTACGACGGGATT
B14: CUCGCCC (DNA:RNA)
RNA: B3 RNA with C26U, U27C, U28G, U29C, A30C, A31C
DNA 1: CAATCTGAATTCCGGTCTCCC
DNA 2: TGGTGGCTACGACGGGATT
B15: UCUGCUC (DNA:RNA)
RNA: B3 RNA with C25U, U28G, U29C, A30U, A31C
DNA 1: CAATCTGAATTCCGGTCTCCC
DNA 2: TGGTGGCTACGACGGGATT
B16: UUCGAAG (DNA:RNA)
RNA: B3 RNA with C25U, C26U, U27C, U28G, U29A, A31G
DNA 1: CAATCTGAATTCCGGTCTCCC
DNA 2: TGGTGGCTACGACGGGATT
B17: AAGACGC (DNA:RNA)
RNA: B1 RNA with G25A, G26A, G31C
DNA 1: CAATCTGAATTCCGGTCTCCC
DNA 2: TGGTGGCTACGACGGGATT
B18: AUGUGCA (DNA:RNA)
RNA: B3 RNA with C25A, C26U, U27G, U29G, A30C
DNA 1: CAATCTGAATTCCGGTCTCCC
DNA 2: TGGTGGCTACGACGGGATT
B19: UAAAUCC (DNA:RNA)
RNA: B3 RNA with C25U, C26A, U27A, U28A, A30C, A31C
DNA 1: CAATCTGAATTCCGGTCTCCC
DNA 2: TGGTGGCTACGACGGGATT
B20: CACCCCU (DNA:RNA)
RNA: B3 RNA with C26A, U27C, U28C, U29C, A30C, A31U
DNA 1: CAATCTGAATTCCGGTCTCCC
DNA 2: TGGTGGCTACGACGGGATT
B21: CGACACA (DNA:RNA)
RNA: B3 RNA with C26G, U27A, U28C, U29A, A30C
DNA 1: CAATCTGAATTCCGGTCTCCC
DNA 2: TGGTGGCTACGACGGGATT
B22: UUGUAUG (DNA:RNA)
RNA: B1 RNA with G25U, G26U, A28U, C29A, G30U
DNA 1: CAATCTGAATTCCGGTCTCCC
DNA 2: TGGTGGCTACGACGGGATT
B23: GUUGCCC (DNA:RNA)
RNA: B1 RNA with G26U, G27U, A28G, G30C, G31C
DNA 1: CAATCTGAATTCCGGTCTCCC
DNA 2: TGGTGGCTACGACGGGATT
B24: CUAUAAC (DNA:RNA)
RNA: B3 RNA with C26U, U27A, U29A, A31C
DNA 1: CAATCTGAATTCCGGTCTCCC
DNA 2: TGGTGGCTACGACGGGATT
B25: UGGGCAU (DNA:RNA)
RNA: B1 RNA with G25U, A28G, G30A, G31U
DNA 1: CAATCTGAATTCCGGTCTCCC
DNA 2: TGGTGGCTACGACGGGATT
B26: UGAACGG (DNA:RNA)
RNA: B1 RNA with G25U, G27A
DNA 1: CAATCTGAATTCCGGTCTCCC
DNA 2: TGGTGGCTACGACGGGATT
B27: AAUGGUU (DNA:RNA)
RNA: B3 RNA with C25A, C26A, U28G, U29G, A30U, A31U
DNA 1: CAATCTGAATTCCGGTCTCCC
DNA 2: TGGTGGCTACGACGGGATT
B28: CUAAGAU (DNA:RNA)
RNA: B3 RNA with C26U, U27A, U28A, U29G, A31U
DNA 1: CAATCTGAATTCCGGTCTCCC
DNA 2: TGGTGGCTACGACGGGATT
B29: CACAUCG (DNA:RNA)
RNA: B3 RNA with C26A, U27C, U28A, A30C, A31G
DNA 1: CAATCTGAATTCCGGTCTCCC
DNA 2: TGGTGGCTACGACGGGATT
B30: GUUAAGA (DNA:RNA)
RNA: B1 RNA with G26U, G27U, C29A, G31A
DNA 1: CAATCTGAATTCCGGTCTCCC
DNA 2: TGGTGGCTACGACGGGATT
B31: UACUCGC (DNA:RNA)
RNA: B1 RNA with G25U, G26A, G27C, A28U, G31C
DNA 1: CAATCTGAATTCCGGTCTCCC
DNA 2: TGGTGGCTACGACGGGATT

For the test, the target named is T1, RBFOX1 RRM. In words: EMSA; HiTS-Eq, 1 nM pool, 10 min; buffer printed only for the single-RNA assays: 10 mM Tris pH 7.5, 150 mM NaCl, 3.4 mM EDTA, 0.001% NP-40, 30 C. The following applies: tags: His6 N-terminal (pET28a); label: 5' 32P. The gist of the method: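 Relative association constants, normalised to the cognate motif, were derived by comparing read counts of each RNA species with those of the control reaction. The RNA sequenced was the free fraction, separated by 8% native PAGE after a 10 min equilibration in 50 µL of 1 nM 5′-radiolabelled RNA (7 randomized nucleotides) with increasing concentrations of purified wild-type or mutant RbFox RRM.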
A general note: Mobility shift assays separate free from complexed probe on a gel.
In the case of B1, the binding signal was 0.0291 KA relative to UGCAUGU.

As to B2, the binding signal is 0.00301 KA relative to UGCAUGU.

As to B3, the binding signal was 0.00389 KA relative to UGCAUGU.

Take B4: the binding signal was 0.0217 KA relative to UGCAUGU.

On to B5, for which the binding signal was 0.00915 KA relative to UGCAUGU.

On to B6, for which the binding signal is 0.003 KA relative to UGCAUGU.

For the molecule B7, the binding signal was 0.0129 KA relative to UGCAUGU.

For B8, the binding signal was 0.00348 KA relative to UGCAUGU.

For B9, the binding signal was 0.0279 KA relative to UGCAUGU.

For the molecule B10, the binding signal is 0.0182 KA relative to UGCAUGU.

With B11, the binding signal is 0.0011 KA relative to UGCAUGU.

In the case of B12, the binding signal was 0.00935 KA relative to UGCAUGU.

With B13, the binding signal was 0.0111 KA relative to UGCAUGU.

Consider B14, for which the binding signal was 0.00659 KA relative to UGCAUGU.

B15: the binding signal is 0.0126 KA relative to UGCAUGU.

In the case of B16, the binding signal was 0.0176 KA relative to UGCAUGU.

As to B17, the binding signal is 0.00195 KA relative to UGCAUGU.

Take B18: the binding signal is 0.0238 KA relative to UGCAUGU.

B19: the binding signal is 0.00295 KA relative to UGCAUGU.

Regarding B20, the binding signal is 0.00104 KA relative to UGCAUGU.

Take B21: the binding signal is 0.000662 KA relative to UGCAUGU.

For B22, the binding signal was 0.0226 KA relative to UGCAUGU.

For B23, the binding signal was 0.0151 KA relative to UGCAUGU.

As for B24, the binding signal is 0.00159 KA relative to UGCAUGU.

As to B25, the binding signal was 0.0311 KA relative to UGCAUGU.

Turning to B26, the binding signal was 0.0179 KA relative to UGCAUGU.

On to B27, for which the binding signal was 0.011 KA relative to UGCAUGU.

As to B28, the binding signal is 0.00704 KA relative to UGCAUGU.

In the case of B29, the binding signal is 0.00432 KA relative to UGCAUGU.

As to B30, the binding signal is 0.012 KA relative to UGCAUGU.

With B31, the binding signal was 0.00662 KA relative to UGCAUGU.
